# Values joined by “and” are separate entries in the source; they are usually repeats but may differ in a detail not shown here. Identical values can stand only once. The shares of active, inactive and inconclusive entries below differ from those in the screen. For some of these results: A potency beside an inconclusive call is a rough fit, not a confirmed value. Active and inactive are the calls of the source. Unless noted, the call rests on the fitted dose curve; in most records, active means well fitted curve in the direction sought with a large enough effect in the repeat runs; inconclusive means weak or mixed curves; inactive means no such curve, though single readings can be large; an effect the other way counts as inactive or inconclusive.
# How the values were obtained:
# [1] = qHTS assay for small molecule agonists of the p53 signaling pathway (AID 651631; calls by dose curve; further: nearly all actives have a fitted effect of over 15% in size; further: potency means the concentration at half of the fitted maximal effect); conditions: HCT-116 p53RE-bla reporter, beta-lactamase FRET ratio, 16 h; activation: at 73.3 µM (top of the series) unless noted
# How it was run: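 Readout was fluorescence from the LiveBLAzer FRET substrate, applied for 2 h at room temperature after 16 h compound exposure at 37 °C. Cells were the p53RE-bla HCT-116 line, with beta-lactamase driven by p53 response elements.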
# [2] = qHTS assay for small molecule disruptors of the mitochondrial membrane potential (AID 720635); conditions: HepG2 mitochondrial membrane potential, Mito-MPS dye ratio; ratio activity, negative = MMP loss: at 83.2 µM (top of the series) unless noted; further: potency means the concentration at half of the fitted maximal effect
# How it was run: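 HepG2 cells exposed to compound 1 hr at 37C, then Mito-MPS dye 30 min. Ratio read of aggregate (540/590 nm) versus monomer (490/535 nm) fluorescence.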
# [3] = biological target: Progesterone receptor (Homo sapiens) (UniProt P06401); assay: qHTS assay to identify small molecule antagonists of the progesterone receptor (PR) signaling pathway (AID 1346795; active means well fitted inhibition curve with a large enough effect in the signal ratio in the repeat runs, not every such curve was filed as active; inconclusive means weak or mixed curves; the % refers to the signal ratio; further: on the % scale 0 is the no-effect control and ±100 the full control effect); conditions: PR-UAS-bla HEK293T, beta-lactamase FRET ratio, 16 h; activity change, negative = inhibition: at 92.4 µM (top of the series) unless noted
# How it was run: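 Antagonist mode with agonist R5020 at 1 nM final and 16 hr incubation at 37C. Reporter was beta-lactamase driven by UAS in HEK293T (PR-UAS-bla), 2% charcoal-stripped serum; signal from LiveBLAzer FRET substrate, 2 hr at room temperature.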
# [4] = biological target: Cytochrome P450 2D6 (Homo sapiens) (UniProt P10635); assay: Cytochrome P450 Family 2 Subfamily D Member 6 (CYP2D6) small molecule antagonists: luciferase reporter qHTS assay (AID 1671196); further: nearly all actives have a fitted effect of over 50% in size; further: potency means the concentration at half of the fitted maximal effect
# How it was run: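 Chemicals tested for interference with CYP2D6 activity; proluciferin substrate, NADPH regeneration, 1 h at room temperature, luminescent detection.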
# [5] = biological target: Glucocorticoid receptor (Homo sapiens) (UniProt P04150); assay: qHTS assay to identify small molecule antagonists of the glucocorticoid receptor (GR) signaling pathway (AID 720692; active means well fitted inhibition curve with a large enough effect in the signal ratio in the repeat runs, not every such curve was filed as active; inconclusive means weak or mixed curves, or effect the other way; inactive means no such curve, though single readings can be large or run the other way; the % refers to the signal ratio; further: on the % scale 0 is the no-effect control and ±100 the full control effect); conditions: GR-bla HeLa, beta-lactamase FRET ratio, dexamethasone-stimulated, 18 h; activity change, negative = inhibition: at 58.5 µM (top of the series) unless noted
# How it was run: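 Tox21 10K library screened in concentration-response for blockade of dexamethasone (5 nM final)-induced GRE-bla reporter activity in HeLa cells; 18 h treatment, fluorescence read.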
# [6] = qHTS assay for identifying genotoxic compounds that show differential cytotoxicity against isogenic chicken DT40 cell lines with known DNA damage response pathways - Rev3 mutant cell line (AID 743014); conditions: chicken DT40 Rev3-/- viability, CellTiter-Glo, 40 h; activity, negative = cytotoxicity: at 68.4 µM (top of the series) unless noted; further: nearly all actives have a fitted effect of over 55% in size; further: potency means the concentration at half of the fitted maximal effect
# [7] = biological target: Vitamin D3 receptor (Homo sapiens) (UniProt P11473); assay: qHTS assay to identify small molecule antagonists of the vitamin D receptor (VDR) signaling pathway (AID 743223; active means well fitted inhibition curve with a large enough effect in the signal ratio in the repeat runs, not every such curve was filed as active; inconclusive means weak or mixed curves, or effect the other way; inactive means no such curve, though single readings can be large or run the other way; the % refers to the signal ratio; further: potency means the concentration at half of the fitted maximal effect); conditions: VDR-UAS-bla HEK293T, beta-lactamase FRET ratio, 16 h; activity change, negative = inhibition: at 61 µM (top of the series) unless noted
# How it was run: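 Antagonist mode: compound added to VDR-bla cells alongside agonist 1alpha,25-dihydroxyvitamin D3 (3 nM final), incubation 16 h at 37C. Read-out is LiveBLAzer FRET fluorescence, 2 h at room temperature.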
# [8] = biological target: Luciferin 4-monooxygenase (Photinus pyralis) (UniProt P08659); assay: qHTS assay to identify small molecule inhibitors of firefly luciferase (AID 1224835); further: nearly all actives have a fitted effect of over 25% in size; further: potency means the concentration at half of the fitted maximal effect
# How it was run: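 Biochemical qHTS: compounds run as interplate titrations against purified firefly enzyme, with D-luciferin and ATP each at its KM concentration. Light output recorded by CCD imaging.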
# [9] = biological target: Cytochrome P450 1A2 (Homo sapiens) (UniProt P05177); assay: Cytochrome P450 Family 1 Subfamily A Member 2 (CYP1A2) small molecule antagonists: luciferase reporter qHTS assay (AID 1671199); further: potency means the concentration at half of the fitted maximal effect; nearly all actives have a fitted effect of over 50% in size
# How it was run: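 Read-out is luminescence from luciferin detection reagent (20 min) proportional to CYP1A2 activity; compounds in DMSO preincubated 10 min with enzyme and proluciferin substrate, then NADPH regeneration solution, 1 h, room temperature.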
# [10] = qHTS assay for identifying genotoxic compounds that show differential cytotoxicity against isogenic chicken DT40 cell lines with known DNA damage response pathways - wild type cell line (AID 743012); conditions: DT40 wild type chicken cells viability, CellTiter-Glo, 40 h; activity change, negative = cytotoxicity: at 68.4 µM (top of the series) unless noted; further: nearly all actives have a fitted effect of over 60% in size; further: potency means the concentration at half of the fitted maximal effect
# How it was run: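 Endpoint: CellTiter-Glo luminescence, 30 min RT. Cells: wild type DT40, 300/well. Exposure: compounds in DMSO, 40 h, 37 C/5% CO2, after ~0.5 h pre-incubation.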
# [11] = biological target: Peroxisome proliferator-activated receptor gamma (Homo sapiens) (UniProt P37231); assay: qHTS assay to identify small molecule antagonists of the peroxisome proliferator-activated receptor gamma (PPARg) signaling pathway (AID 743191; calls by dose curve; further: nearly all actives have a fitted effect of over 30% in size; further: potency means the concentration at half of the fitted maximal effect); conditions: HEK293H PPARg-UAS-bla, beta-lactamase ratio, antagonist, 17 h
# How it was run: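 GeneBLAzer PPARg UAS-bla HEK293H cells, 5 h post-plating, exposed to compounds 17 h at 37C. LiveBLAzer B/G FRET substrate added for 1 h at room temperature; beta-lactamase reporter read by fluorescence intensity.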
# [12] = biological target: Peroxisome proliferator-activated receptor delta (Homo sapiens) (UniProt Q03181); assay: qHTS assay to identify small molecule antagonists of the peroxisome proliferator-activated receptor delta (PPARd) signaling pathway (AID 743215; active means well fitted inhibition curve with a large enough effect in the signal ratio in the repeat runs, not every such curve was filed as active; inconclusive means weak or mixed curves, or effect the other way; inactive means no such curve, though single readings can be large or run the other way; the % refers to the signal ratio;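 further: cells stimulated with agonist L165041 at 300 nM final during compound exposure; on the % scale 0 is the no-effect control and ±100 the full control effect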); conditions: HEK293H PPARd-UAS-bla, beta-lactamase FRET ratio, antagonist, 17 h; ratio activity, negative = inhibition: at 62 µM (top of the series) unless noted
# How it was run: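 Screen format: qHTS, antagonist mode. HEK293H PPARd-bla cells received compound and 300 nM L165041 (final), 17 h, 37 C. Beta-lactamase detected via FRET substrate fluorescence, 2 h, room temperature.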
# [13] = qHTS assay to identify small molecule agonists of the progesterone receptor (PR) signaling pathway - cell viability counter screen (AID 1346799; calls by dose curve; further: nearly all actives have a fitted effect of over 45% in size; further: potency means the concentration at half of the fitted maximal effect)
# How it was run: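 Cytotoxicity measured by CellTiter-Glo luminescence (30 min, RT) in the same wells as the PR beta-lactamase agonist read. Those HEK293T cells had 16 h compound treatment at 37 C in 2% charcoal-stripped FBS medium.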
# [14] = biological target: Cytochrome P450 2C9 (Homo sapiens) (UniProt P11712); assay: Cytochrome P450 Family 2 Subfamily C Member 9 (CYP2C9) small molecule antagonists: luciferase reporter qHTS assay (AID 1671198); further: nearly all actives have a fitted effect of over 50% in size; further: potency means the concentration at half of the fitted maximal effect
# How it was run: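 P450-Glo proluciferin substrate with CYP2C9 enzyme; 10 min RT preincubation, then NADPH regeneration 1 h at 37C; luciferin detection reagent 20 min RT, luminescence in relative luminescence units.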
# [15] = qHTS assay to identify small molecule antagonists of the thyroid receptor (TR) signaling pathway - cell viability counter screen (AID 743064); conditions: GH3.TRE-Luc viability, CellTiter-Fluor, 24 h; activity change, negative = cytotoxic: at 70.3 µM (top of the series) unless noted; further: nearly all actives have a fitted effect of over 50% in size; further: potency means the concentration at half of the fitted maximal effect
# How it was run: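 In-well cytotoxicity read by CellTiter-Fluor (30 min, 37 C) following 23.5 h exposure of GH3 cells bearing a TRE-luciferase sensor. Compounds were added alongside 1 nM (final) T3 to drive TR transactivation.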
# [16] = qHTS assay for small molecule agonists of the antioxidant response element (ARE) signaling pathway (AID 743202; active means well fitted activation curve with a large enough effect in the signal ratio in the repeat runs, not every such curve was filed as active; inconclusive means weak or mixed curves, or effect the other way; inactive means no such curve, though single readings can be large or run the other way; the % refers to the signal ratio; further: on the % scale 0 is the no-effect control and ±100 the full control effect); conditions: HepG2 ARE-bla reporter, beta-lactamase FRET, 16 h; activation: at 73.3 µM (top of the series) unless noted
# How it was run: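 HepG2 ARE-bla reporter line, 2,000 cells/well; 5 h preincubation 37 C/5% CO2; compound (DMSO) 16 h 37 C; B/G FRET substrate 2 h RT; fluorescence intensity.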
# [17] = biological target: Estrogen receptor beta (Homo sapiens) (UniProt Q92731); assay: qHTS assay to identify small molecule antagonists of the estrogen receptor beta (ER-beta) signaling pathway (AID 1259378; active means well fitted inhibition curve with a large enough effect in the signal ratio in the repeat runs, not every such curve was filed as active; inconclusive means weak or mixed curves, or effect the other way; inactive means no such curve, though single readings can be large or run the other way; the % refers to the signal ratio; further: on the % scale 0 is the no-effect control and ±100 the full control effect); conditions: ER-beta-UAS-bla HEK293T, beta-lactamase FRET ratio, 16 h; activity, negative = inhibition: at 92.4 µM (top of the series) unless noted
# How it was run: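 ER-beta-UAS-bla HEK293T cells in 2% charcoal-stripped FBS medium treated with compound plus 1nM final 17-beta-estradiol for 16 hr at 37C. Beta-lactamase reporter read by FRET substrate fluorescence after 2 hours at room temperature.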
# [18] = qHTS assay to identify small molecule antagonists of the progesterone receptor (PR) signaling pathway - cell viability counter screen (AID 1346798)
# How it was run: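 Cytotoxicity read as CellTiter-Glo luminescence (30 min, room temperature) in the same wells as the beta-lactamase readout. HEK293T PR-UAS-bla cells in charcoal-stripped 2% FBS received compound and R5020, then 16 h at 37C, 5% CO2.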
# [19] = ratio activity, negative = inhibition: at 62.6 µM (top of the series) unless noted
# Tags describe the fitted curve by direction and shape or compound fluorescence and quenching.
# Chain of UniProt P10635 (P10635 whole entry, looked up): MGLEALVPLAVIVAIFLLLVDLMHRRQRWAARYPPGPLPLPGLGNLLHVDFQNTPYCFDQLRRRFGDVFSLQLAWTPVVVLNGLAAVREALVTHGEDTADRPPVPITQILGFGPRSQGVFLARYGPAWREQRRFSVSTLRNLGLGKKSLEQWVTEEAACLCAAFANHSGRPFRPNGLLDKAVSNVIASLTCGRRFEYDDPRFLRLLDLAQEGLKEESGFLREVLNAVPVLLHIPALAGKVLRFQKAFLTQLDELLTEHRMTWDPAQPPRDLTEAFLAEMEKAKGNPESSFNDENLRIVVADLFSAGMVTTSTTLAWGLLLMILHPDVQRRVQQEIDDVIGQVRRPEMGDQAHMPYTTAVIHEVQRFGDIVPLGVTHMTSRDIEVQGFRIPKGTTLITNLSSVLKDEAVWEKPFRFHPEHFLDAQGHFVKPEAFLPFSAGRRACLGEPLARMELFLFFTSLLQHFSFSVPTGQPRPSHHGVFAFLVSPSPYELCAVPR
# Chain of UniProt P08659 (P08659 whole entry, looked up): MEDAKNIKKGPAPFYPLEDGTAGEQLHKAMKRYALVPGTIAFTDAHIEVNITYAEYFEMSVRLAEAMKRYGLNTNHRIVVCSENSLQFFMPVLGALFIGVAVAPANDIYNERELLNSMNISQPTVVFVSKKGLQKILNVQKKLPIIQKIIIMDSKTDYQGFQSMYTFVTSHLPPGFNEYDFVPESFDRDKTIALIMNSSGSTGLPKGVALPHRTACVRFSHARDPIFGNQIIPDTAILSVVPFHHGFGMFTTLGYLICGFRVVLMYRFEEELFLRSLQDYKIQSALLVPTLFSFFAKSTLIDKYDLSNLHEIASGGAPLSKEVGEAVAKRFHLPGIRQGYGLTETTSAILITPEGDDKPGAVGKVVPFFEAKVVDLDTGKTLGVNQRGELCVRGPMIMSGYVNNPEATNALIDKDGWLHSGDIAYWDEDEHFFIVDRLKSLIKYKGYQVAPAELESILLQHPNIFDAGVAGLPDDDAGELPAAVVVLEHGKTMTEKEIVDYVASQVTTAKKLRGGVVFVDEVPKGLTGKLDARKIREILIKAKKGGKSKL
# Chain of UniProt P11712 (P11712 whole entry, looked up): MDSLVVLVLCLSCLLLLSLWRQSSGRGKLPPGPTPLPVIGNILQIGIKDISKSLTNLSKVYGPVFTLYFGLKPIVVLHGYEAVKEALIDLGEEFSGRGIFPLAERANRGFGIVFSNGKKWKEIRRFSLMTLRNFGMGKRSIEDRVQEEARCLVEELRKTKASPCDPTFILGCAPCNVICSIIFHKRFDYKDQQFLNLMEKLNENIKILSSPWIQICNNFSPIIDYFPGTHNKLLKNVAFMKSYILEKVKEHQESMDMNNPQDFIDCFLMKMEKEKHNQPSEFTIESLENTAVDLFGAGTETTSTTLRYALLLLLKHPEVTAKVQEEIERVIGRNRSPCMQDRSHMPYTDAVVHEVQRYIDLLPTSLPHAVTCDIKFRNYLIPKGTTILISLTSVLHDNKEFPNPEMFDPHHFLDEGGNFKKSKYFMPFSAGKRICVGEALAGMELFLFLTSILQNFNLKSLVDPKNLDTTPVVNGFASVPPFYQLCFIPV
# Chain of UniProt P37231 (P37231 whole entry, looked up): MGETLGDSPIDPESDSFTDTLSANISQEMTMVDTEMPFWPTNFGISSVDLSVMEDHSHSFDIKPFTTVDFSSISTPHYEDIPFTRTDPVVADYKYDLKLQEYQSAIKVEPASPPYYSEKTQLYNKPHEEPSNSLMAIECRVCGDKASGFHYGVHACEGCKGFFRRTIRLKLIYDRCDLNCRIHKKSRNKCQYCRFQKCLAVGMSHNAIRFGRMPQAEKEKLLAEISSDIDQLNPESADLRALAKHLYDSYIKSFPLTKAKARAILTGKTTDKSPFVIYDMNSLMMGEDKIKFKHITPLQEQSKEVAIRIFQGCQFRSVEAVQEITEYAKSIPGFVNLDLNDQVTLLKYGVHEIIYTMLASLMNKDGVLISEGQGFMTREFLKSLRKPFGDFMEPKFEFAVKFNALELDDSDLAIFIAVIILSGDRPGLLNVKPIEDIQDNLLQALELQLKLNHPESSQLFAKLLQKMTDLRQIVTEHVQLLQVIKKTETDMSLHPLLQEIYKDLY
# Chain of UniProt P11473 (P11473 whole entry, looked up): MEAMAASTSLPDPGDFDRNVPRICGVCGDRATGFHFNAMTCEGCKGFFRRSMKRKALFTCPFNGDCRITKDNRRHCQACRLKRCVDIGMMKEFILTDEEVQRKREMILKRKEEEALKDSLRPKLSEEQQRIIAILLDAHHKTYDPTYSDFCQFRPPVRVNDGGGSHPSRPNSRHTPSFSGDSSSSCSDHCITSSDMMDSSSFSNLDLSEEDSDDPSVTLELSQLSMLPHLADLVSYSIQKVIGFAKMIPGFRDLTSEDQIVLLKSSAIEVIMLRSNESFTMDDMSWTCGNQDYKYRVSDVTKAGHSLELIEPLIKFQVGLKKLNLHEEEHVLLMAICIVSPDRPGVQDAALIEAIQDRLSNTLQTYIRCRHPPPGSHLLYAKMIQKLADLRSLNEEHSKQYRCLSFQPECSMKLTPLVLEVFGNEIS
# Chain of UniProt Q03181 (Q03181 whole entry, looked up): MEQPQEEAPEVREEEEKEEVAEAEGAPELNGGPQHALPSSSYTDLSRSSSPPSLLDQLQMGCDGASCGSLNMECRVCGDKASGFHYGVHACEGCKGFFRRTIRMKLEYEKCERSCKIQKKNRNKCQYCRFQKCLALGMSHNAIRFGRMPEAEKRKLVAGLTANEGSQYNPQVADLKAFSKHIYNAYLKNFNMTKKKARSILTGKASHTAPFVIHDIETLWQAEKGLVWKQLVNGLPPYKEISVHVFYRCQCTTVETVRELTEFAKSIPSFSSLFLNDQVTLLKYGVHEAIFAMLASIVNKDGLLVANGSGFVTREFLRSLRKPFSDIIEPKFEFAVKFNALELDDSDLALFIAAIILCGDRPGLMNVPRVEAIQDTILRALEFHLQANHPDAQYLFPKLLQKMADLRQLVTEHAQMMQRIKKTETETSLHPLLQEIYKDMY
# Chain of UniProt P04150 (P04150 whole entry, looked up): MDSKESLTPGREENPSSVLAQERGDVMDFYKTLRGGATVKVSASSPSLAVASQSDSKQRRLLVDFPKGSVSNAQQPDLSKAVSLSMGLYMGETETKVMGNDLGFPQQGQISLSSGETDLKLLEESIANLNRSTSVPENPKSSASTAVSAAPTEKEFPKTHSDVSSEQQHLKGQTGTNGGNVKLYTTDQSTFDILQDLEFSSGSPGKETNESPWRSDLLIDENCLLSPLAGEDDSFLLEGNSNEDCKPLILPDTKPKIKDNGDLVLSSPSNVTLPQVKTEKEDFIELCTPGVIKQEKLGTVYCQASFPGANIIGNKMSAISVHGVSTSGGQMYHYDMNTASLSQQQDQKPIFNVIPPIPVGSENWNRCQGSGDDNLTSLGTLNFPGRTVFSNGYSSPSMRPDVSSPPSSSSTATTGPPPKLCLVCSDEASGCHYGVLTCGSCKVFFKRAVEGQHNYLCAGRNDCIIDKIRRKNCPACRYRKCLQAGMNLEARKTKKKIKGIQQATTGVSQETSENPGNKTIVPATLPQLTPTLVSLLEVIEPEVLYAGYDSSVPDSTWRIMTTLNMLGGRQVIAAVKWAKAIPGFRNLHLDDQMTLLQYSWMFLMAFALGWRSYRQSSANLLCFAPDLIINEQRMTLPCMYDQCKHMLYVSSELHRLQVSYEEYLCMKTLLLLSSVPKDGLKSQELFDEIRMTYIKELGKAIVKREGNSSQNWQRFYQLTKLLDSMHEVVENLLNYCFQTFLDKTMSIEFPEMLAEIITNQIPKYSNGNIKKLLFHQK
# Chain of UniProt P05177 (P05177 whole entry, looked up): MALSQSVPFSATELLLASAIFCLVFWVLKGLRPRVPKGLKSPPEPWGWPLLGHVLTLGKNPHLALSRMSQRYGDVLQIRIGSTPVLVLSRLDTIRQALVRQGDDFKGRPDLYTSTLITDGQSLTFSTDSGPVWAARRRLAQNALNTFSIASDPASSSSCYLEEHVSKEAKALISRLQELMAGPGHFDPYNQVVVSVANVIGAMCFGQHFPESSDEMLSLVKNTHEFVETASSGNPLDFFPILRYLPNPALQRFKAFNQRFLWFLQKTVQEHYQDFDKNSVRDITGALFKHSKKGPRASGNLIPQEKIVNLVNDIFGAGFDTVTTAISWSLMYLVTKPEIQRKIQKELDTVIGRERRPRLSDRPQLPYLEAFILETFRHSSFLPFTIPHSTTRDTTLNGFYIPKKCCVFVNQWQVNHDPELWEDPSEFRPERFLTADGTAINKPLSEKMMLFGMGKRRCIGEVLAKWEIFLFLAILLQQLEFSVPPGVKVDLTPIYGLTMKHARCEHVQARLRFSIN
# Chain of UniProt Q92731 (Q92731 whole entry, looked up): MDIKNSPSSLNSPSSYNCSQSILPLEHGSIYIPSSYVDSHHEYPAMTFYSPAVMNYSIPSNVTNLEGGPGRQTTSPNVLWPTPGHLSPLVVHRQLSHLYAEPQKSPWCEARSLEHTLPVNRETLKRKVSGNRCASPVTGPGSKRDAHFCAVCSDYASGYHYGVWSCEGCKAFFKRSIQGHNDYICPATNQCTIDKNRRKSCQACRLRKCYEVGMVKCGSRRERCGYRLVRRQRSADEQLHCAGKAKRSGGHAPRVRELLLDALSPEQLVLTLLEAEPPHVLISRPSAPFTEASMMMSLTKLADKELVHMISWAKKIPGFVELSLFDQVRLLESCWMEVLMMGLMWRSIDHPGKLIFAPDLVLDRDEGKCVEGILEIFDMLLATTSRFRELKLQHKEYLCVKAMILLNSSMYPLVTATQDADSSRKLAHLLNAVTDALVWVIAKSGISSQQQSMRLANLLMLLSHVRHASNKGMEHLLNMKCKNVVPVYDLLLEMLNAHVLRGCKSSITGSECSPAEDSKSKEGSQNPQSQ
structure (smiles),measurement,setting,value
Cc1c(C(C)C)c(=O)n(-c2ccccc2)n1C,Potency,[1],inconclusive: 13.3 µM [activator]
same,Potency,[2],"inconclusive: 1.19 µM [fluorescent, single point]"
same,"activity change, negative = inhibition",[3],inconclusive: 2.1% [at 42.5 µM]
same,Potency,[4],"inconclusive: 43.6 µM [inhibitor, single point]"
O=[N+]([O-])c1cccc(Cl)c1Cl,"activity change, negative = inhibition",[5],inconclusive: 14%
same,Potency,[6],inactive
same,Potency,[7],inconclusive: 55 µM [activator]
same,Potency,[8],"inconclusive: 56.5 µM [inhibitor, partial curve, poor fit]"
same,Potency,[4],inactive
same,Potency,[9],"inconclusive: 40 µM [inhibitor, partial curve]"
FC(F)(F)/C(=N\OCC1OCCO1)c1ccc(Cl)cc1,Potency,[6],"inconclusive: 24.3 µM [cytotoxic, full curve, poor fit]"
same,Potency,[7],inactive
same,Potency,[8],inactive
Cc1ccc(S(=O)(=O)NC(=O)NC2CCCCCCC2)cc1,Potency,[1],inactive
same,Potency,[2],inactive
same,"activity change, negative = inhibition",[5],inconclusive: -42.6%
same,Potency,[10],inactive
same,Potency,[11]; [19],"inconclusive: 33.5 µM [inhibitor, single point]"
Cc1nnc(NS(=O)(=O)c2ccc(N)cc2)s1,Potency,[2],inconclusive: 944 nM [activator] and inactive
same,Potency,[10],inactive
same,Potency,[6],inactive
same,"ratio activity, negative = inhibition",[11]; at 62.6 µM (top of the series),inactive: 1.86%
same,"ratio activity, negative = inhibition",[11]; [19],inconclusive: 15.6%
same,Potency,[12],inactive
same,"activity change, negative = inhibition",[7],inconclusive: 25.9% and inconclusive: 16.3%
same,Potency,[13],inactive
same,Potency,[4],"inconclusive: 35.5 µM [inhibitor, partial curve]"
same,Potency,[14],"active: 35.5 µM and inconclusive: 24.5 µM [inhibitor, partial curve]"
CN1CCN(c2c(F)cc3c(=O)c(C(=O)O)cn4c3c2SCC4)CC1,Potency,[10],active: 10.6 µM
same,Potency,[15],inactive
same,"ratio activity, negative = inhibition",[11]; [19],inconclusive: 2.36%
same,Potency,[8],inactive
same,Potency,[4],"inconclusive: 38.9 µM [inhibitor, partial curve, poor fit]"
same,Potency,[14],"inconclusive: 43.6 µM [inhibitor, partial curve, poor fit]"
CC(C)=CCOC(=O)c1ccccc1,"ratio activity, negative = MMP loss",[2],inconclusive: 20.8%
same,Potency,[15],"inconclusive: 30.6 µM [rising, single point]"
same,activation,[16],inconclusive: 1.55%
same,"activity change, negative = inhibition",[7],inconclusive: -8.41%
same,Potency,[8],"inconclusive: 28.3 µM [inhibitor, full curve]"
same,Potency,[14],inactive
same,Potency,[9],"inconclusive: 56.4 µM [inhibitor, partial curve, poor fit]"
FC(F)(F)C(F)(F)C(F)(F)C(F)(F)C(F)(F)C(F)(F)CCI,Potency,[1],inactive
same,"ratio activity, negative = inhibition",[11]; [19],inconclusive: 20.5%
same,Potency,[8],"inconclusive: 43.6 µM [inhibitor, single point]"
same,Potency,[4],"inconclusive: 34.7 µM [inhibitor, partial curve]"
same,Potency,[14],"inconclusive: 21.9 µM [inhibitor, partial curve, poor fit]"
Cc1ccc2c(c1)c1c3n2CCNC3CCC1 (configuration not stated),Potency,[2],"inconclusive: 5.96 µM [activator, full curve]"
same,Potency,[10],active: 11.9 µM
same,Potency,[15],active: 11.9 µM
same,"activity, negative = inhibition",[17],inconclusive: -25.8% [at 42.5 µM]
same,Potency,[18],"inconclusive: 13.3 µM [cytotoxic, full curve, poor fit]"
same,Potency,[13],"inconclusive: 29.8 µM [cytotoxic, single point]"

# From PubChem BioAssay (Tox21)
